Laboratory results as given in the supplement of paper PMC11417369.
± gives the standard deviation of the averaged measurements. This is one part of the list.

These sequences were tested on PfAP2-EXP AP2 domain (GST-tagged) (assay: gcPBM binding intensity (ln(normalized median fluorescence intensity)); higher = stronger DNA binding).
How it was run: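 The binding buffer was 1× PBS containing 1% milk, 0.2 mg/ml BSA, 0.5% salmon testes DNA and 0.03% Triton X-100. In it, GST-tagged P. falciparum DNA-binding domains expressed in E. coli were applied for 1 h to an Agilent 4 × 180k array of primer-extended double-stranded 36-bp intergenic genomic probes plus negative controls. Binding intensity, read with Alexa488 anti-GST antibody and a 488 nm scan, is the highest Masliner-normalised natural-log median intensity across replicate spots of either probe orientation.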

Point of comparison: “TATGCAATATATTATATTCTGTAAATATTATATATT [TGCATGCA_negctrl_site67]”, “gcPBM binding intensity (ln)” value 8.13 ± 0.33. Against it:
- TATATATTTTTTAATTGTACACTTCAAAAACAAAAA [XGTACX_site5595] — within error, 8.36 ± 0.36
- ATAATCAACATTAGGTGTACAAAATATGTATGTTTT [XGTACX_site6696] — within error, 8.7 ± 0.33
- AAAAACTTAATATTGACACACATTTTTAAGAATAAT [CACACA_site4291] — within error, 8.35 ± 0.3
- ATTGAACACATCTATGCATGCACGGAAAAAAGTACA [TGCATGCA_site401] — higher, 10.07 ± 0.085
- AGAATAAATAAATATTGTACATATAAAATATATATA [XGTACX_site896] — within error, 8.39 ± 0.35
- TTCAAATTTCCACATACACACCTTGTAGATATATAT [CACACA_site7984] — within error, 8.66 ± 0.49
- GTAGTTATATTAAGGGTGCTTAATTAGATTAAACAA — within error, 8.43 ± 0.042
- TTTTTTAAAATATGGACACACATATATATATCTGTA [CACACA_site5535] — within error, 8.39 ± 0.4
- ACCACCAGGAACAAAGCACATTAGGAAAAATAAAAC [XGTACX_negctrl_site228] — within error, 8.82 ± 0.53
- TATAAAAAATTAAAATTTTTCTTATTTTTTTTAGAT [TGCATGCA_negctrl_site125] — within error, 8.22 ± 0.47
- TACCAATAAATGAAGGTGCGTGCTTGCCTTTGCTAT — within error, 8.54 ± 0.31
- CATACATATATTATTGCACACATATAAAATACCCCC [CACACA_site9292] — higher, 10.2 ± 0.33
- TTGAATAAATTGGAATAAATATAATAAAATAAGGAA [XGTACX_negctrl_site302] — within error, 8.62 ± 0.38
- TTGTATAGTCTGATATGTACATATATATATATATAA [XGTACX_site4307] — higher, 8.7 ± 0.2
- TAGGAATTTAATAAATGTACATATACATAATATATA [XGTACX_site3672] — within error, 8.3 ± 0.35
- AAAAAATAGTGGTATGCATGTCCCTTGTATTTTCTT [TGCATGCA_site587] — within error, 8.56 ± 0.45
- TACTTTTATATGAATACACACAGGAATATAAATATG [CACACA_site7647] — within error, 8.59 ± 0.4
- TCCTTACATTTTAAAACACACAAAAATTAATTGTTA [CACACA_site2313] — within error, 8.33 ± 0.42
- TGGATACACAAAAATTAAAAAAATAAACAAACAAAT [GTGCAC_negctrl_site105] — higher, 8.94 ± 0.47
- AAAATACCCATTTTAGTACACACTTAAAAAATTATT [CACACA_site8966] — within error, 8.23 ± 0.35
- AAAAAAAAAAAATGCACACATATATTTCCATATACA [CACACA_site1471] — within error, 8.32 ± 0.23
- TTTAAAATACAGAAGGTGCATTTAACATATTTGTAT — higher, 8.91 ± 0.26
- TATATATATAAACACACACACATATATATATATATA [CACACA_site4584] — higher, 10.1 ± 0.35
- ATATATATATATATATGTACTAATTAATATTTCGAG [XGTACX_site580] — higher, 10.2 ± 0.47
- ACAAAATTTACAAAATGTACAAAATTTACAAAGTAT [XGTACX_site6463] — within error, 8.43 ± 0.36
- GTATATCATATTTCATGTACACAAAAAAATAAAAAT [XGTACX_site704] — higher, 8.85 ± 0.37
- ATATATTTGATAAGAGTGCACAAATACATACATACA [GTGCAC_site9704] — higher, 9.425 ± 0.092
- TATATATATTATATATGTACATATTATATATATATA [XGTACX_site7300] — higher, 9.46 ± 0.17
- GTTTTAACAAAATTAGTGCATTTATCAATTATATAA — within error, 8.33 ± 0.16
- TTTTTTTTTTCAATGGCACACATTTTAGATTTATGC [CACACA_site1074] — within error, 8.38 ± 0.4
- ATAATACTACCTACATGTACTTATATATAAATGAAT [XGTACX_site3417] — higher, 8.96 ± 0.39
- ACATCAAGCGGACACACACACACACCGACAGACACA [CACACA_site4361] — within error, 8.8 ± 0.4
- AAAGAATCAAGAATAGTGCAAATATGTATAACCTTT — higher, 8.86 ± 0.014
- ATAAAATAATGAAAAACACACATTTTTATTTGTATA [CACACA_site3369] — within error, 8.2 ± 0.43
- ATATATATATATGAATCACACACAAAAAATATAGAG [CACACA_site9298] — higher, 10 ± 0.16
- ATTGTTTTTTTTTCTTTGTGGAATGAATGAATATAT [XGTACX_negctrl_site603] — within error, 8.71 ± 0.6
- AAGATTATAAATATATGTACATAAATATATTATATA [XGTACX_site8056] — within error, 8.44 ± 0.3
- AATAACATGTTATATACACACATTATGAAGTCTTCA [CACACA_site746] — within error, 8.43 ± 0.37
- AAAGTATTCTTTACACGTACATATATATAAATATAA [XGTACX_site7557] — within error, 8.45 ± 0.37
- AATATAAATAATATATGTACATATATATATATATAT [XGTACX_site1021] — higher, 10 ± 0.49
- AATATAGATATAAAAAGTACATTATATATATATATA [XGTACX_site6899] — higher, 10.1 ± 0.49
- AGAATTGTTGTTAAAGAATTCTTTTTTATCCTTCCC [CACACA_negctrl_site1820] — within error, 8.39 ± 0.49
- TTTGTATATATTAATGTACACACATGCGTATGTTCG [CACACA_site9193] — within error, 8.65 ± 0.35
- TATACATACCATAATGCATGTAAGAACAAATAACTG [TGCATGCA_site264] — within error, 8.8 ± 0.35
- AAAAAAAAAAAAAAGGTGCATACTTTGAATTAATAT [GTGCAC_site9401] — higher, 8.825 ± 0.064
- ATGACTCTCAAGTTTGCACACATTTATATTTTTTAA [CACACA_site2605] — within error, 8.85 ± 0.49
- TATTTTTTTTCTTATACACACCATGCATCAAACTAA [CACACA_site5208] — within error, 8.76 ± 0.51
- TTTATATATATATATATATATAATAAATGATACACA [TGCATGCA_negctrl_site392] — within error, 8.47 ± 0.36
- TCAAAAATATTCTGGAGTACCTTTTTAAAGGTATAG [XGTACX_site6893] — within error, 8.17 ± 0.35
- TTTGCACCGTTTAAGTGTACAGAATTATGACATATA [XGTACX_site6735] — higher, 8.79 ± 0.11
- ATTGCATATAATGGCACACATAAATCCATAATATAT [CACACA_site297] — within error, 8.49 ± 0.35
- TAAATATATATATACACACACATACACAAAAAAAAA [CACACA_site3580] — within error, 8.73 ± 0.42
- TGTGGTTACATGTGCACACACTTATTTCGTTCTTAT [CACACA_site4907] — higher, 9.03 ± 0.23
- TGTGTTCATCTATGCACACGCATATATATTATTGTT [CACACA_site5985] — within error, 8.49 ± 0.28
- CAAAATTTATGTAAAAGTACAAAAATATAGAAAGAT [XGTACX_site1122] — higher, 8.99 ± 0.35
- TAATCGAAACAAAGAACATGCAAACATATACCTATA [TGCATGCA_site894] — higher, 8.62 ± 0.14
- AATATAATATAAGGATCACACACAAACACCCATATA [CACACA_site8084] — within error, 8.91 ± 0.61
- TTTTATTCCTTCTTTGCACACGTTTAAAAATATATA [CACACA_site2899] — higher, 9.4 ± 0.36
- TAAGTTATATGTATATGTACTTATATATATATATAT [XGTACX_site5402] — higher, 10.1 ± 0.3
- ATTAAAAAAATTAAAAGTACACATATTTCAATGATA [XGTACX_site5606] — within error, 8.39 ± 0.38
- AAAATTAAAAAGAACACACAAATATATCTATAATAA [CACACA_site7660] — within error, 8.65 ± 0.4
- TAAAAAAAAAAAAAAACACACATATAAATATATATA [CACACA_site1243] — within error, 8.21 ± 0.25
- GCACATAAATATATGACACACACACCGATTATATAT [CACACA_site9003] — within error, 8.66 ± 0.43
- TTAATAAATAAAAATGCACACAGTTAACATGTTGAA [CACACA_site1200] — within error, 8.61 ± 0.38
- ATAATAATTTAATACATACACACGTATATCTTTTTT [CACACA_site2041] — within error, 8.45 ± 0.4
- AAAAAAAAAAAAAAAACACACAAACATCAAATTATT [CACACA_site5083] — within error, 8.6 ± 0.2
- ATACAAAAAGTAAAAAGTACTTAACTAAATATATAA [XGTACX_site2335] — within error, 8.58 ± 0.35
- TTTTCAATATATTAATGTACGAATACGCAAATAAGA [XGTACX_site1613] — higher, 9.35 ± 0.48
- TTTTTTTTTTTTTTTGCACACACATAATAGGTACAA [CACACA_site3578] — within error, 8.46 ± 0.37
- GCAGGATTGGTTCAAACACACATATTATATGACTAT [CACACA_site660] — within error, 8.61 ± 0.4
- ATCTTATATGATCACACACACACGCACAAAACAGAA [CACACA_site4913] — within error, 8.91 ± 0.52
- ATATACATATGTGTGTGTACTTATATCACATTTTTG [XGTACX_site3785] — within error, 8.61 ± 0.41
- TTATGGATAAATAAATGTACGTTAAGATAACACAAA [XGTACX_site4208] — within error, 8.51 ± 0.39
- GTTTTTTTGTTTTAGTGTACCTAAAACTGCATGTAG [XGTACX_site294] — higher, 9.41 ± 0.38
- TCGACAAAGGCATATACACACATTTGTAACATAAAT [CACACA_site4471] — within error, 8.31 ± 0.52
- ATTTCTCTATAGTAATGTACAAAAAAAAGGAAAAAG [XGTACX_site2757] — within error, 8.76 ± 0.39
- CAAGAATAAAAATACAAGCACACATGTATGAAATAT [CACACA_site3214] — higher, 8.91 ± 0.42
- ACATAAAATAAATATACACACATATGTATTTATTAT [CACACA_site5648] — within error, 8.28 ± 0.43
- AAACCGAATTTACATGAATGTAAATTATGTTGTTTT [CACACA_negctrl_site1834] — within error, 8.37 ± 0.38
- TATTTAATTACATGAACACACATTATGTATTTTTAA [CACACA_site2962] — within error, 8.3 ± 0.3
- TAAAAAAAAAAAACAAGTACATATATAAATATATAT [XGTACX_site7537] — within error, 8.19 ± 0.35
- TTTTTATTTAATAATATATTAATCATATAAATAAAT [GTGCAC_negctrl_site210] — within error, 7.96 ± 0.43
- TATATTCTTATTATTGCATGCTGCACGAAGATTTTC [TGCATGCA_site831] — higher, 9.14 ± 0.56
- ATAATAAATAAAATAACACACATATATAGATATATA [CACACA_site6224] — within error, 8.44 ± 0.29
- TGTATGCATATTTGATGTACGCACATATACTAATTT [XGTACX_site3159] — within error, 8.82 ± 0.47
- TTTATATAAAAAAATTGTACATATTTATTATAAACA [XGTACX_site2124] — within error, 8.26 ± 0.3
- TTTAATTATAAGATAACACACAAAAAAAATAAAATA [CACACA_site254] — within error, 8.7 ± 0.59
- GTATGTTTGTTATGCACACAAATGCATCTTATTTCC [CACACA_site2690] — higher, 8.96 ± 0.28
